Test results as given in PubChem BioAssay (NCI).
Where “and” joins values, the source holds several entries; their conditions need not be identical. Equal entries are not always repeated.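 Five compound concentrations were applied to cells in 96-well plates for 48 hours; endpoints were derived by simple linear interpolation of the resulting dose-response curve. Here, GI50 denotes the concentration required for 50% inhibition of growth. TGI: total growth inhibition.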 Peptide text beside a SMILES is read from it. * marks the point of attachment. Boc = CC(C)(C)OC(=O)*

Test system: NCI-H322M lung
Assay: NCI tumour cell line growth inhibition, 48 h

FC(F)(F)c1ccc(-c2cnc(-c3ncon3)nc2NC2CCCCCC2)cc1 was tested, and the GI50 was over 100 µM and the TGI was over 100 µM.

CCCN(CCS(C)(=O)=O)Cc1ccc(-c2ccc3ncnc(Nc4ccc(OCc5cccc(F)c5)c(Cl)c4)c3c2)o1 was tested, and the GI50 was 0.781 µM and the TGI was over 25 µM.

For CN(C)CCCN1c2ccccc2Sc2ccc3ccccc3c21, the TGI was 24.9 µM.

Molecule COc1cccc(NC(=O)CSc2nnc(-c3ccc(NC(C)=O)cc3)o2)c1 has a TGI of over 100 µM.

In the case of NC(=O)c1csc(C2OC(CO)C(O)C2O)n1 (configuration not stated), the GI50 is reported as > 95.7 µM and 70.3 µM and the TGI is reported as over 10000 µM.

Molecule O=C1C(Cl)=C(Nc2ccc(S(=O)(=O)O)cc2)C(=O)c2ccccc21 has a TGI of over 100 µM.

O=C(O)C12C3CCC(CC3)C1(C(=O)O)C1CCC2C1 (configuration not stated) showed a TGI of over 100 µM.

O=C1CCCN1C(=O)CS(=O)(=O)c1ccccc1 gave a TGI of over 100 µM.

COc1cc(N2C(=O)[C@H](O)C2c2ccc(SC)cc2)cc(OC)c1OC (some centres not stated) gave a GI50 of 0.058 µM and a TGI of over 100 µM.

CC(=O)c1ccc2c(c1)CC1(C2)Cc2cc3c(cc2C1=O)CCC3 (configuration not stated) showed a TGI of over 100 µM.

COc1c(Br)cc2c(c1OC)C(Br)CCC(Br)(Br)C2=O (configuration not stated) showed a TGI of 12.7 µM.

Molecule CSc1nc2c(c(=O)[nH]1)N=C(c1ccc([N+](=O)[O-])cc1)CC(c1ccccc1)N2 (configuration not stated) has a TGI of over 100 µM.

With Cc1ccc2c(C3Cc4ccccc4N3C(=O)/C=C\C(=O)O)c(C)[nH]c2c1 (configuration not stated) the TGI was over 100 µM.

COc1cc(C2SCC(=O)N2c2cccc(Cl)c2)cc(OC)c1OC (configuration not stated) was tested, and the TGI was over 100 µM.

O=C(NNCC(O)COc1ccccc1)c1ccccc1 (configuration not stated) gave a TGI of over 100 µM.

In the case of C=CCC1(OCc2ccccc2)C(=O)C(=O)OC1C1COC(C)(C)O1 (configuration not stated), the TGI is reported as over 100 µM.

O=C1OC2(CC1C1(O)C3CC4CC(C3)CC1C4)C1CC3CC(C1)CC2C3 (configuration not stated) showed a TGI of over 100 µM.

CC(=O)CN(Cc1cc(C)c2c(c1)c1ccccc1n2Cc1ccccc1)S(=O)(=O)c1ccc(C)cc1 showed a TGI of over 100 µM.

With O=C(Nc1ccc(OCc2nnc(-c3ccc(Cl)cc3)o2)c(F)c1)Nc1ccc(Cl)c(C(F)(F)F)c1 the GI50 was 2.99 µM and the TGI was 16.9 µM.

With COc1ccc(C2SCC(=O)N2c2ccc(-c3ccc(-n4c(-c5ccccc5)nc5ccccc5c4=O)cc3)cc2)cc1OC (configuration not stated) the TGI was 34.4 µM.

In the case of C=CC1(NC(=O)c2ccccc2)CCC(C(C)(C)C)CC1 (configuration not stated), the TGI is reported as over 100 µM.

CO/N=C(\COc1ccc2c(c1)[nH]c1ccccc12)c1ccc(F)cc1 gave a GI50 of 29.4 µM and a TGI of over 100 µM.

In the case of COC(=O)C1CC2CC(=NNC(N)=O)CC2C1 (configuration not stated), the TGI is reported as over 100 µM.

O=C(/C=C\c1cccc([N+](=O)[O-])c1)/C=C/c1cccc([N+](=O)[O-])c1 showed a GI50 of over 100 µM and a TGI of over 100 µM.

In the case of Cc1cccc(C)c1NC(=O)/C(=N/NC(N)=S)C(C)C(=O)c1ccc(Cl)cc1 (configuration not stated), the TGI is reported as over 100 µM.

Molecule COC1C=COC2(C)Oc3c(C)c(O)c4c(c3C2=O)/C(=N/C2CCC(O)OC2C)C=C(NC(=O)/C(C)=C\C(=O)C2CC2C(O)C(C)C(O)C(C)C(OC(C)=O)C1C)C4=O (configuration not stated) has a TGI of 10.7 µM.

CN=c1ccc2nc3ccc(N)cc3sc-2c1 gave a GI50 of 6.35 µM and a TGI of 39.8 µM.

COC(=O)[C@@H]1[C@H](OC(C)=O)CCC2[C@@]3(C[C@@H](c4ccoc4)O[C@@H]3OC)[C@H](C)CC[C@]21C(=O)OC (some centres not stated) was tested, and the TGI was over 25 µM.

For CCOC(=O)C1C(c2ccc3c(c2)OCO3)c2c([nH][nH]c2=O)CC1(C)O (configuration not stated), the TGI was over 100 µM.

With CC(C)(C)OC(=O)NC(Cc1ccc(O)cc1)C(=O)N1CCCC1C(=O)O (stereo not drawn) (Boc-Tyr-Pro-OH; configuration not given here) the TGI was over 100 µM.

Work on CO/N=C(/C)c1ccc(NC(=O)CSc2nnc(-c3ccncc3)n2-c2ccccc2)cc1 yielded a GI50 of over 100 µM and a TGI of over 100 µM.

COc1ccc(C=O)c([N+](=O)[O-])c1 gave a TGI of over 100 µM.

O=[N+]([O-])c1cccc2nnccc12 showed a TGI of over 100 µM.

For Nc1nc(OCc2ccccc2)c2[nH]cnc2n1, the GI50 was 24.3 µM and 12 µM and the TGI was 95.7 µM and 400 µM and 299 µM.

For C=C(Br)CNC(=O)Nc1ccc(Cl)c(Cl)c1, the TGI was 60.2 µM.

In the case of Cn1c(=O)c2[nH]c(CCNC(=O)c3ccccc3)nc2n(C)c1=O, the TGI is reported as over 100 µM.

N#CC(=C1C=CC(=NO)C=C1)c1ccc(Cl)cc1 was tested, and the TGI was over 100 µM.

CC/C=C\C/C=C\C/C=C\CCCCCCCC(=O)OCC(O)CO (configuration not stated) was tested, and the TGI was over 97.1 µM.

CCCCn1c(N)c(-c2nc3ccccc3o2)sc1=S showed a TGI of 77.5 µM.

CC(=O)C(CN(CC(C)C)CC(C)C)C(c1ccccc1)c1c(O)c2ccccc2oc1=O (configuration not stated) was tested, and the TGI was over 100 µM.

In the case of COc1cc2c(cc1OC)C1C=NC(C2)c2cc(OC)c(OC)cc21 (configuration not stated), the TGI is reported as over 100 µM.

COc1cccc(OC)c1C(=O)OCc1ccccc1 showed a TGI of over 100 µM.

Work on CCC(CCCN)Nc1cc(OC)cc2c(C)ccnc12 (configuration not stated) yielded a TGI of 28.2 µM.

Work on C/C=C1\CN2CCc3c([nH]c4ccccc34)C2CC1C(=O)OC (configuration not stated) yielded a TGI of over 322 µM.

Work on O=C1NC(=O)C(N2C(=O)c3ccccc3C2=O)CC1O (configuration not stated) yielded a GI50 of over 100 µM and a TGI of over 100 µM.

C[N+](C)(C)CCc1ccccc1 gave a TGI of over 100 µM.

C[C@@H]1CN(Cc2ccc(F)cc2)[C@@H](C)CN1C(=O)c1cc2c(C(=O)C(=O)N(C)C)cn(C)c2cc1Cl showed a GI50 of 20.9 µM and a TGI of 66.4 µM.

For COc1ccc(-c2cc(-c3ccc(C)cc3)nc3nc(=S)[nH]c(N)c23)cc1, the GI50 was 27.9 µM and the TGI was 75.6 µM.

N#CC1C(=O)NC23CCCCC2C1c1ccccc1O3 (configuration not stated) was tested, and the TGI was over 100 µM.

Molecule O=C1c2ccccc2-c2cc([N+](=O)[O-])c([N+](=O)[O-])cc21 has a TGI of 24.6 µM.

Work on O=C(CCl)NNC1=Nc2ccc(Cl)cc2SC1 yielded a TGI of 10.1 µM.

CC(=O)Nc1ccc(C(O)/C(=N/N)c2nc3ccc(Cl)cc3[nH]c2=O)cc1 (configuration not stated) was tested, and the TGI was over 100 µM.

In the case of O=S(=O)(Nc1cc(Sc2cccc3cccnc23)c(O)c2ccccc12)c1ccc(F)cc1, the GI50 is reported as 2.43 µM and the TGI is reported as 11.4 µM.

For CCCCCCCOc1ccc(/C=C\c2cc[n+](CCCCCCCC[n+]3ccc(/C=C\c4ccc(OCCCCCCC)cc4)cc3)cc2)cc1, the TGI was 31.6 µM.

Cc1ccc(-c2nnc(-c3nn(-c4ccccc4)c4nc5ccccc5nc34)o2)cc1 showed a TGI of over 100 µM.

Molecule COc1ccc(C(=O)/C=C/c2ccc(O)c(O)c2)c(OC)c1 has a TGI of 26.2 µM.

O=C1OCC2OC(=O)c3cc(O)c(O)c(O)c3-c3c(O)c(O)c(O)c4c3C(=O)OC(C2OC(=O)c2cc(O)c(O)c(O)c2-c2c1cc(O)c(O)c2O)C1OC(=O)c2c-4c(O)c(O)c(O)c2[C@@H]1C(O)C(O)C(O)C(O)CO (some centres not stated) gave a TGI of 32.3 µM.

Work on CN1C(=O)N(C)C2C1NN=c1s/c(=C\c3ccc(C(F)(F)F)cc3)c(=O)n12 (configuration not stated) yielded a GI50 of 6.37 µM and a TGI of over 100 µM.

With O=C1OC(=O)C(=C\c2ccc3c(c2)OCO3)/C1=C/c1ccc2c(c1)OCO2 the TGI was over 100 µM.

Work on Cc1ccc(/C=C/C(=O)C(C)(C)CN2CCCCC2)cc1 yielded a TGI of 17.8 µM.

O=C(NN1C(=O)CSC12CCCCC2)c1[nH]c2ccc(Br)cc2c1-c1ccccc1 was tested, and the GI50 was 27.6 µM and the TGI was 79.7 µM.

Molecule O=C(O)c1cc2c(ncc3c(=O)n(-c4ccccc4)[nH]c32)s1 has a TGI of over 100 µM.

In the case of CC(=O)NC(CCCNC(=O)N(CCCl)N=O)C(=O)NCc1ccccc1 (configuration not stated), the TGI is reported as over 100 µM.

Work on CCN(CC)c1ccc2cc(C(=O)Nc3ccc4[nH]c(C(=O)N5C[C@@H](CCl)c6c5cc(OC(=O)Nc5ccccc5)c5[nH]cc(C)c65)cc4c3)oc2c1 yielded a TGI of over 1000 µM.

In the case of CN(C)c1ccc(C(Cc2ccccc2)C2NC(=S)NC2=O)cc1 (configuration not stated), the TGI is reported as over 100 µM.

CCC(=O)C12OC3OC(C)(C)OC3C1OC(C)(C)O2 (configuration not stated) was tested, and the TGI was over 100 µM.

Work on CCCNC(=O)C(C)C1CCC2(C)C=CC(=O)C(C)=C2C1O (configuration not stated) yielded a TGI of over 100 µM.

Cc1cc(C)c(-n2[nH]c(=O)n(C)c2=O)c(C)c1 gave a TGI of over 100 µM.

Molecule Cc1ccc(C2OC(COCc3ccc(Cl)cc3)C(OCc3ccc(Cl)cc3)C2O)cc1 (configuration not stated) has a TGI of 60.8 µM.

Work on O=C1CC(c2c[nH]c3ccccc23)C(=O)N1 (configuration not stated) yielded a TGI of over 100 µM.

C=CC[C@@H](N)C(=O)N(C)[C@@H](C)[C@@H](O)c1ccccc1 showed a TGI of over 100 µM.
